Experimental data from PubChem BioAssay AID624170 (National Center for Advancing Translational Sciences (NCATS), 2012).
In all, about 410,000 compounds went through this assay and about 850 (0.21%) were called active. Inconclusive results, whose numbers are uncertain, are shown with a selection of clear calls. Calls come from the whole dose curve; as a rule, active = well fitted inhibition curve with a large enough effect; inconclusive = small, poorly fitted or top-dose-only effect, or another doubt; inactive = no such curve, though single readings can be large or run the other way. A potency beside an inconclusive call is a rough fit, not a confirmed value. Numbered stars: 1 amine (or outer) side, 2 acyl side, 3 side chain; on linkers, the order of the positions; unused ones are H or OH. Bridge positions count the residues as written; N and C are the ends. Square brackets hold non-standard residues; d marks the D form. Peptide text beside a SMILES is read from it. ξ: configuration not given here. hSer(Ph(2-I,4-NO2,6-CO)) = O=C([C@H](CCOc1c(I)cc([N+](=O)[O-])cc1C(=O)[*:3])N[*:1])[*:2]; ξD = NC(CC(=O)O)C(=O)O

target: Glutaminase kidney isoform, mitochondrial (Homo sapiens) (UniProt O94925); assay: qHTS for Inhibitors of Glutaminase (GLS); conditions: GLS enzymatic activity, qHTS titration; series mostly up to 45.5 µM; activity change, negative = inhibition: at the top concentration
UniProt O94925, sequence (O94925 whole entry, looked up, canonical isoform): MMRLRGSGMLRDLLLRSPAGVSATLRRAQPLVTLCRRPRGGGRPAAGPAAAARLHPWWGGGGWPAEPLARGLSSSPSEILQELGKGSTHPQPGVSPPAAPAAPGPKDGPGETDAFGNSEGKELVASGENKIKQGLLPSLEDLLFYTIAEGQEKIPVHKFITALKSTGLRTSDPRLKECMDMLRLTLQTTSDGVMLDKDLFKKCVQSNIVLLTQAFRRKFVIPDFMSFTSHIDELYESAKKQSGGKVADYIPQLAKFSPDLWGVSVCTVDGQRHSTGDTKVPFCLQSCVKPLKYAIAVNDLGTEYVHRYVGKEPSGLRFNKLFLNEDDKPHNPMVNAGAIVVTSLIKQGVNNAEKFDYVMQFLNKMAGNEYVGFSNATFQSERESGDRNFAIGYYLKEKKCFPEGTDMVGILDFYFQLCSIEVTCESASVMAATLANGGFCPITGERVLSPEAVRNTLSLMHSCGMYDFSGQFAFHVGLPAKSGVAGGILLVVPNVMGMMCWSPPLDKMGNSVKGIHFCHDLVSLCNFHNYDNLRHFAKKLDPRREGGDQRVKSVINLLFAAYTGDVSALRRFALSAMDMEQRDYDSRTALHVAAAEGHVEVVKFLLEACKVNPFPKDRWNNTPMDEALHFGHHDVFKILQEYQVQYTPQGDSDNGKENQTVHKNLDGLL
Outline: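 Enzyme dispensed in phosphate buffer (45 mM, pH 8.2, 0.02% Tween-20), compounds pinned in, then 1 mM L-glutamine solution and the glutamate oxidase–HRP–Amplex Red mix added; fluorescence read immediately and again after 30 min at room temperature.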
% is set by controls: 0 for no effect and ±100 for the full control effect; potency is the fitted concentration of half-maximal effect; tags give direction and shape of the fitted curve.

Activity change, negative = inhibition, inactive:
CCCn1c(SCC(=O)N2CCN(c3ccc(OC)cc3)CC2)nc2c1c(=O)n(C)c(=O)n2C 43.6%
CC1(C)O[C@H]2C[C@@H]3[C@H]4CCC5=CC(=O)C=C[C@]5(C)[C@@]4(F)[C@@H](O)C[C@]3(C)[C@]2(C(=O)CO)O1 -9.2%
CSc1ccc(CN(C)C(=O)c2cccc(S(=O)(=O)NCc3ccccc3)c2)cc1 3.59%
O=C(NCc1ccccc1)C(=O)Nc1nccs1 -1.88%
CC(C)CC(=O)NC(c1cccs1)c1ccc2cccnc2c1O (configuration not stated) -4.58%
CCOc1cc(/C=N\Nc2nc(Nc3ccccc3)nc(N3CCOCC3)n2)ccc1OC(=O)c1ccco1 5.36%
COc1cccc(-n2c(CNc3ccc(F)cc3)nnc2SCC(N)=O)c1 0.87%
Cc1cc(C)c2nc(C)cc(Nc3cccc(C(=O)O)c3)c2c1 2.08%
O=C(COC(=O)Cc1ccc(Cl)c(Cl)c1)Nc1ccc2[nH]c(=O)[nH]c2c1 1.23%
CC(=O)Nc1cccc(Cl)c1C(=O)O 1.13%
C=CCOC(=O)C1C(=O)CC(C)(O)C(C(=O)OCC=C)C1c1ccc(N(C)C)cc1 (configuration not stated) 24.3%
Cc1ccc(NNC(N)=S)cc1Cl 21%
Nc1ccn(C2OC(COC(=O)C34CC5CC(CC(C5)C3)C4)C(O)C2O)c(=O)n1 (configuration not stated) 0.634%
Cc1noc(NS(=O)(=O)c2ccc(NC(=O)CC34CC5CC(CC(Br)(C5)C3)C4)cc2)c1C 13.3%
Cc1ccc(C)c(NC(=O)Cc2ccc(S(=O)(=O)N3CCCCC3)s2)c1 1.95%
CCOc1ccccc1CN1CCN(Cc2ccc3cc(F)ccc3n2)CC1CCO (configuration not stated) 1.21%
CCC(C)(C)NC(=O)C(c1cccn1C)N(C(=O)Cn1nnc2ccccc21)c1ccc(OC)cc1 (configuration not stated) -4.05%
CCCCNC(=O)CCC(=O)Nc1ccc2nc(N3CCOCC3)cc(C)c2c1 -5.7%
COc1cc(/C=C2\SC(=S)N(Nc3ccccc3)C2=O)cc(OC)c1OC 9.24%

Potency, active:
CCN(CC)C(=O)c1ccc(Nc2nnc(-c3ccc(O)cc3)c3ccccc23)cc1 10 µM
CC1=CC(C)(C)NC(=S)N1c1cccc2cc(S(=O)(=O)O)ccc12 11.2 µM
O=S(=O)(N1CCCCC1)N1CCNCC1 15.8 µM
O=C(N/N=C/c1ccoc1)c1cc(O)cc(O)c1 12.6 µM

Potency, inconclusive:
CNS(=O)(=O)c1ccc(NC(=S)Nc2ccc3c(c2)OCO3)cc1 20 µM [inhibitor, single point]
c1ccc(Nc2cc(Nc3ccccc3)[nH]n2)cc1 35.5 µM [inhibitor, single point]
CC(C)c1ccc(/C=N/n2c(-c3ccccc3)n[nH]c2=S)cc1 12.6 µM [inhibitor, partial curve, poor fit]
O=C(CCS(=O)(=O)c1ccc(Br)cc1)Nc1cc(F)ccc1F 28.2 µM [inhibitor, partial curve, poor fit]
CCOc1ccccc1NC(=O)/C(C#N)=C/c1c(C)nn(-c2ccccc2)c1Cl 8.91 µM [inhibitor, single point]
CNC(=O)CC1C(=O)N(C)C(=S)N1NC(=O)c1ccccc1 (configuration not stated) 17.8 µM [inhibitor, single point]
CCc1nnc(NC(=O)CSc2ccc(-c3ccccc3OC)nn2)s1 35.5 µM [inhibitor, single point]
Oc1ccc(/C=N/N=C(c2ccccc2)c2ccccc2)c(O)c1O 7.08 µM [inhibitor, partial curve]
c1cn2c(-c3ccoc3)cncc2n1 15.8 µM [inhibitor, single point]
CC(=O)Nc1ccc(C=NNc2ccc(S(=O)(=O)Nc3ccccc3C(=O)O)cc2[N+](=O)[O-])cc1 35.5 µM [inhibitor, single point]
Cc1nn(-c2ccccc2)c2[nH]c(=O)c(CNc3ccc(N4CCOCC4)cc3)cc12 35.5 µM [inhibitor, single point]
COc1ccc2c(/C=N/NS(=O)(=O)c3ccc(C)cc3)c[nH]c2c1 17.8 µM [inhibitor, single point]
O=C(c1csc2ccccc12)N1CCN(c2ccccn2)CC1 5.62 µM [inhibitor, single point]
C/C(=C\c1ccccc1)C1NC(=O)c2c(sc3c2CCCC3)N1 (configuration not stated) 20 µM [inhibitor, single point]
C/C(=N\NC(=S)NCCc1ccccc1)c1ccc(O)cc1O 35.5 µM [inhibitor, single point]
C[C@@H]1NC(=O)[C@H](CC(N)=O)NC(=O)c2cc([N+](=O)[O-])cc(I)c2OCC[C@@H](C(=O)NC(CC(=O)O)C(N)=O)NC1=O (some centres not stated) (NA[hSer(Ph(2-I,4-NO2,6-CO))][ξD]-NH2; lactam N-3) 25.1 µM [inhibitor, single point]
CCc1nnc(NC(=O)CSc2sc3c(O)cc(=O)[nH]c3c2C#N)s1 22.4 µM [inhibitor, single point]
CCOc1ccccc1NC(=O)CSc1nc2ccccc2c(=O)n1CC1CCCO1 (configuration not stated) 14.1 µM [inhibitor, partial curve, poor fit]
COc1cc(/C=C2\C(C)=C(C#N)c3nc(N)c(C#N)c(C)c32)ccc1OCC(=O)O 22.4 µM [inhibitor, single point]
N=C1/C(=C\c2ccc(-c3ccc(C(=O)O)cc3)o2)C(=O)N=C2SC=C(c3ccccc3)N12 35.5 µM [inhibitor, single point]
Cc1cc(NC(=O)CN2CCc3ccccc3C2)nc2c1c(=O)oc1ccccc12 35.5 µM [inhibitor, single point]
CSc1nnc(-c2ccco2)c(-c2ccco2)n1 12.6 µM [inhibitor, partial curve, poor fit]
Oc1c(Br)cc(/C=N/Nc2ccc(Cl)nn2)cc1Br 22.4 µM [inhibitor, single point]
CCOC(=O)N1CCC(NC(=O)C2CCN(S(=O)(=O)c3c(C)noc3C)CC2)CC1 3.55 µM [inhibitor, full curve, poor fit]
CC(C)n1c(-c2ccc(C(C)(C)C)cc2)n[nH]c1=S 11.2 µM [inhibitor, partial curve]
CCN(CCNC(=O)C1CCN(S(=O)(=O)CC)CC1)c1ccccc1 28.2 µM [inhibitor, single point]
O=C(O)CN1C(=O)/C(=C2\SC(=S)N(C(Cc3ccccc3)C(=O)O)C2=O)c2ccccc21 (configuration not stated) 5.01 µM [inhibitor, partial curve]
COc1ccc(CS(=O)/C(Cl)=C(/Cl)C(=O)Nc2ccc(OC)nc2)cc1 (configuration not stated) 4.47 µM [inhibitor, full curve]
CCCOc1ccc(C(=O)NCC(C)(C)N2CCOCC2)cc1 6.31 µM [inhibitor, single point]
O=Cc1coc2ccc3ccccc3c2c1=O 35.5 µM [inhibitor, partial curve, poor fit]
C=CCN=c1scc(C)n1/N=C/c1ccc(O)c(O)c1 35.5 µM [inhibitor, single point]
CCOc1ccc(NC(=O)C2CCN(S(=O)(=O)c3cccnc3)CC2)cc1 3.98 µM [inhibitor, single point]
O=C(Nc1ccccc1F)C1CCCN(S(=O)(=O)c2ccccc2)C1 (configuration not stated) 35.5 µM [inhibitor, single point]
COc1ccc(-c2ccc(CNCCCN3CCOCC3)o2)cc1Cl 25.1 µM [inhibitor, single point]
CN(C)c1ccc(NC(=O)c2cn(-c3ccccc3)nc2-c2cccs2)cc1 35.5 µM [inhibitor, single point]
C=C1c2cccc(O)c2C(O)=C2C(=O)[C@]3(O)C(O)=C(C(N)=O)C(=O)[C@@H](N(C)C)[C@@H]3[C@@H](O)[C@H]12 35.5 µM [inhibitor, single point]
COc1cc(/C=C2\SC(=S)N(c3cccnc3)C2=O)ccc1O 10 µM [inhibitor, partial curve]
CCOc1ccccc1NC(=O)CSc1nnc(-c2ccco2)o1 5.62 µM [inhibitor, partial curve, poor fit]
COc1ccccc1/C=N/NC(=O)c1cccc2ccccc12 17.8 µM [inhibitor, single point]
O=C(CSc1ccccn1)N/N=C/c1ccccc1[N+](=O)[O-] 11.2 µM [inhibitor, partial curve, poor fit]
C=CCn1c(SCCOc2ccc(OC)cc2)nnc1C(C)NC(=O)Cc1ccc(OC)cc1 (configuration not stated) 6.31 µM [inhibitor, single point]
C/C(=N\Nc1ccc2nncn2n1)c1ccco1 15.8 µM [inhibitor, partial curve]
Oc1ccccc1/C=N/NC(=S)NC1CC2CC1C1C=CCC21 (configuration not stated) 11.2 µM [inhibitor, partial curve]
COc1cc(/C=N/n2c(-c3cc(C)[nH]n3)n[nH]c2=S)cc(OC)c1OC 11.2 µM [inhibitor, partial curve]
